# Measured values: the supplement of paper PMC10670038
# Where “and” joins values, the source holds several entries; their conditions need not be identical. Equal values may be shown once. Where a name gives a salt, the structure may show the parent alone. ± gives the standard deviation of the averaged measurements. The full ranking holds about 2,000 compounds; the median of “relative cell viability vs DMSO, compound alone” is about 1.1, and the lowest 2% start at about 0.29. This is one part of the list.
# Tested on: TE10
# Assay: relative cell viability vs DMSO, compound alone (fraction); TE10 is an esophageal squamous carcinoma line; higher = less cytotoxic
# Conditions: 2 µM; 48 h
# Description: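 TE10 ESCC cells (1,000/well, 384-well plates) were treated with Selleck bioactive library compounds at 2 uM alone for 48 h. Viability was read by CellTiter-Glo and expressed relative to DMSO wells. Two technical replicates (A, B).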
row,SMILES,relative cell viability
1,c1ccc(Cn2c(-c3ccc(OCC(C4CCNCC4)n4c(-c5ccccc5)nc5ccccc54)cc3)nc3ccccc32)cc1 (stereo unspecified) [Deltarasin],1.116 ± 0.0025
2,CCC(=O)NCC[C@@H]1CCc2ccc3c(c21)CCO3 [Ramelteon],1.15 ± 0.046
3,COC1=CC(=O)C[C@@H](C)[C@]12Oc1c(Cl)c(OC)cc(OC)c1C2=O [Griseofulvin],1.12 ± 0.06
4,CC(C)(C)c1cc(/C=C(\C#N)C(N)=S)cc(C(C)(C)C)c1O [Tyrphostin AG 879],0.886 ± 0.065
5,COc1ccc(-c2coc3cc(O)cc(O)c3c2=O)cc1 [Biochanin A],1.07 ± 0.027
6,NS(=O)(=O)NCCNc1nonc1/C(=N/O)Nc1ccc(F)c(Br)c1,1.159 ± 0.0044
7,O[C@@H](COc1cccc2ncccc12)CN1CCN(C2c3ccccc3[C@@H]3[C@H](c4ccccc42)C3(F)F)CC1 (stereo partly specified),1.14 ± 0.082
8,OCC(O)CN1CCN(c2ccccc2)CC1 (stereo unspecified) [Dropropizine],1.092 ± 0.0047
9,COc1ccccc1N1CCN(CCN2C(=O)CC3(CCCC3)CC2=O)CC1,1.009 ± 0.0049
10,CN(C)CCC(c1ccc(Cl)cc1)c1ccccn1 (stereo unspecified) [Chlorpheniramine Maleate],1.05 ± 0.027
11,CCCC(CCC)C(=O)O [Divalproex Sodium],0.924 ± 0.19
12,CCCC(CCC)C(=O)O [Valproic acid sodium salt (Sodium valproate)],1.17 ± 0.054
13,CN(C)[C@@H](CCOc1cccc2ccccc12)c1ccccc1 [Dapoxetine HCl],0.959 ± 0.0061
14,CC(=O)NC(Cc1ccc(O)cc1)C(=O)NC(CCCN=C(N)N)C(=O)NC(Cc1ccccc1)C(N)=O (stereo unspecified),0.828 ± 0.052
15,O=C(NC1CCNCC1)c1n[nH]cc1NC(=O)c1c(Cl)cccc1Cl,0.528 and 0.423
16,CC(C)c1noc(N2CCC(COc3ccc(-c4ccc(S(C)(=O)=O)cc4)nc3)CC2)n1,0.842 ± 0.012
17,O=CN1CC/C(=C/c2ccc3c(c2)OCO3)C1=O,1.121 ± 0.0041
18,"CC[C@H](Nc1ncnc2[nH]cnc12)c1nc2cccc(F)c2c(=O)n1-c1ccccc1 [CAL-101 (Idelalisib, GS-1101)]",1.13 ± 0.026
19,CCOc1cc(N2CCC(O)CC2)ccc1Nc1ncc2c(n1)N(C)c1ccccc1C(=O)N2C,1.05 ± 0.021
20,S=C=Nc1cccc(NC(=S)NCCCCNC(=S)Nc2cccc(N=C=S)c2)c1,1.13 ± 0.05
21,Fc1ccc2[nH]ccc2c1-c1nc(N2CCOCC2)c2sc(CN3CCN(CC4CC4)CC3)cc2n1,0.754 ± 0.025
22,CC(CN1c2ccccc2Sc2ccccc21)N(C)C (stereo unspecified) [Promethazine HCl],1.02 ± 0.013
23,Cc1ccc(NC(=O)Nc2cc(C(F)(F)F)ccc2F)cc1Nc1ccc2c(c1)NC(=O)/C2=C\c1ccc[nH]1,1.13 ± 0.031
24,CNC(=O)c1ccccc1Sc1ccc2c(/C=C/c3ccccn3)n[nH]c2c1 [Axitinib],0.59 ± 0.12
25,CC1(C)CCCC2(C)C1CCC1(C)OC(=O)CC12 (stereo unspecified) [Sclareolide],1.15 ± 0.078
26,CNC(=O)c1ccc(N2C(=S)N(c3cnc(C#N)c(C(F)(F)F)c3)C(=O)C23CCC3)cc1F,1.1 ± 0.018

row,SMILES,relative cell viability
1,O=C1c2ccccc2-c2n[nH]c3cccc1c23,1.27 ± 0.0019
2,O=C(c1ccc(OCCN2CCCCC2)cc1)c1c(-c2ccc(O)cc2)sc2cc(O)ccc12 [Raloxifene HCl],0.993 ± 0.15
3,COC1(c2sc3c(N4CCOCC4)nc(-c4cnc(N)nc4)nc3c2C)COC1,0.417 ± 0.014
4,CCOC(=O)C1=C(C)NC(C)=C(C(=O)OC)C1c1cccc([N+](=O)[O-])c1 (stereo unspecified) [Nitrendipine],1.05 ± 0.12
5,CC(C)C[C@H](NC(=O)CNC(=O)c1cc(Cl)ccc1Cl)B1OC(=O)CC(CC(=O)O)(C(=O)O)O1 (stereo partly specified),0.312 ± 0.0064
6,CC1CCc2cc(F)cc3c(=O)c(C(=O)O)cn1c23 (stereo unspecified) [Flumequine],0.878 ± 0.065
7,CCCCOc1ccc(OCCCN2CCOCC2)cc1 [Pramoxine HCl],1.06 ± 0.058
8,C[C@@H](O)[C@H]1C(=O)N2C(C(=O)OCOC(=O)C(C)(C)C)=C(SC3CN(C4=NCCS4)C3)[C@H](C)[C@H]12 [Tebipenem Pivoxil],1.14 ± 0.037
9,CN[C@@H](C)C(=O)N[C@H](C(=O)N1CCC[C@H]1C(=O)N[C@H](C(=O)NCCCCCCNC(=O)[C@@H](NC(=O)[C@@H]1CCCN1C(=O)[C@@H](NC(=O)[C@H](C)NC)C1CCCCC1)C(c1ccccc1)c1ccccc1)C(c1ccccc1)c1ccccc1)C1CCCCC1,0.871 ± 0.0093
10,COc1ccc(-n2nc(C(N)=O)c3c2C(=O)N(c2ccc(N4CCCCC4=O)cc2)CC3)cc1 [Apixaban],1.1 ± 0.027
11,COc1ccc(C(C)=O)c(O)c1 [Paeonol],1.11 ± 0.031
12,COc1c(O)cc2c(c1O)[C@@H]1O[C@H](CO)[C@@H](O)[C@H](O)[C@H]1OC2=O [Bergenin],1.07 ± 0.043
13,CC(C)[C@H]1CC[C@H](C(=O)N[C@H](Cc2ccccc2)C(=O)O)CC1 [Nateglinide],0.922 ± 0.1
14,Nc1cccc(-c2cc3c(Oc4cccc(O)c4)ncnc3[nH]2)c1,1.01 ± 0.043
15,COc1ccccc1OCCNCC(O)COc1cccc2[nH]c3ccccc3c12 (stereo unspecified) [Carvedilol],0.935 ± 0.019
16,CC(C)c1nc(CN(C)C(=O)N[C@H](C(=O)N[C@@H](Cc2ccccc2)C[C@H](O)[C@H](Cc2ccccc2)NC(=O)OCc2cncs2)C(C)C)cs1 [Ritonavir],1.13 ± 0.062
17,O=C(Nc1cccc(Cl)c1)Nc1ncc(CCNc2ncnc3ccsc23)s1 [SNS-314 Mesylate],1.02 ± 0.085
18,CCc1c(C(=O)NCCc2ccc(N3CCCCC3)cc2)[nH]c2ccc(Cl)cc12,0.95 ± 0.048
19,CCCS(=O)(=O)Nc1ccc(F)c(C(=O)c2c[nH]c3ncc(Cl)cc23)c1F,1.24 ± 0.017
20,CCN1CCCC1CNC(=O)c1cc(S(=O)(=O)CC)c(N)cc1OC (stereo unspecified) [Amisulpride],1.298 ± 0.0039
21,Nc1nc(N)nc(-c2cc(Cl)ccc2Cl)n1 [Irsogladine],1.04 ± 0.029
22,CNC(=O)CN1CCC(Oc2cc3c(Nc4cccc(Cl)c4F)ncnc3cc2OC)CC1 [AZD8931 (Sapitinib)],1.21 ± 0.015
23,CCC(C)(C)c1ccc(CC(C)CN2C[C@@H](C)O[C@@H](C)C2)cc1 (stereo partly specified) [Amorolfine HCl],0.85 ± 0.029
24,"CC(C)(C)C#Cc1cc(N(C(=O)[C@H]2CC[C@H](C)CC2)[C@H]2CC[C@H](O)CC2)c(C(=O)O)s1 [VX-222 (VCH-222, Lomibuvir)]",1.1786 ± 0.00026
25,CC(C)N(CCC(=O)c1ccc2ccccc2c1)Cc1ccccc1,0.964 ± 0.065
